Measured values from the supplement of paper PMC4996465.
Structures can show the parent of a compound that is named as a salt. Viability of KB3-1 and Nalm-6 cells after 48 h of drug alone (CellTiter-Glo), 11 doses over about 4.5 log units. % of DMSO wells, lower = more cell loss; AC50 from the fitted curve, lower = more potent. No active / inactive call. Nalm-6 was screened in two runs. AC50 is listed only for well-fitted inhibitory curves. KB3-1 is a HeLa-derived carcinoma line, Nalm-6 a B-cell precursor leukaemia line.

How the values were obtained:
Nalm-6 = test: viability (% of DMSO control); higher = more viable cells
Description: (§1)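 Eleven-dose screen of the NCATS MIPE 3 library on cells without co-treatment; CellTiter-Glo after 48 h, as % of DMSO wells.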

KB3-1 = test: as above
Description: as §1

Structure (SMILES) | viability (Nalm-6; run: 1, 0.00078 µM) | viability (Nalm-6; run: 1, 0.00234 µM) | viability (Nalm-6; run: 1, 0.00702 µM) | viability (Nalm-6; run: 1, 0.0211 µM) | viability (Nalm-6; run: 1, 0.0632 µM) | viability (Nalm-6; run: 1, 0.19 µM) | viability (Nalm-6; run: 1, 0.569 µM) | viability (Nalm-6; run: 1, 1.71 µM) | viability (Nalm-6; run: 1, 5.12 µM) | viability (Nalm-6; run: 1, 15.4 µM) | viability (Nalm-6; run: 1, 46.1 µM) | viability (Nalm-6; run: 2, 0.00078 µM) | viability (Nalm-6; run: 2, 0.00234 µM) | viability (Nalm-6; run: 2, 0.00702 µM) | viability (Nalm-6; run: 2, 0.0211 µM) | viability (Nalm-6; run: 2, 0.0632 µM) | viability (Nalm-6; run: 2, 0.19 µM) | viability (Nalm-6; run: 2, 0.569 µM) | viability (Nalm-6; run: 2, 1.71 µM) | viability (Nalm-6; run: 2, 5.12 µM) | viability (Nalm-6; run: 2, 15.4 µM) | viability (Nalm-6; run: 2, 46.1 µM) | viability (KB3-1; 0.00078 µM) | viability (KB3-1; 0.00234 µM) | viability (KB3-1; 0.00702 µM) | viability (KB3-1; 0.0211 µM) | viability (KB3-1; 0.0632 µM) | viability (KB3-1; 0.19 µM) | viability (KB3-1; 0.569 µM) | viability (KB3-1; 1.71 µM) | viability (KB3-1; 5.12 µM) | viability (KB3-1; 15.4 µM) | viability (KB3-1; 46.1 µM)
Clc1ccc(-c2nc3sccn3c2/C=N/OCc2ccc(Cl)c(Cl)c2)cc1 [CITCO] | -1.26% | -0.966% | -0.373% | 2.83% | 10.4% | 38.7% | 65.5% | 66.3% | 80.1% | 84.2% | 47.2% | 107% | 116% | 113% | 112% | 110% | 108% | 105% | 107% | 99.7% | 105% | 71.4% | 99.5% | 97.3% | 104% | 98.3% | 103% | 100% | 93.3% | 103% | 88.3% | 91.9% | 97.3%
CCN(CC)CCn1c(=O)c(Cc2ccc(OC)cc2)nc2ccccc21 [Caroverine hydrochloride] | 121% | 134% | 108% | 123% | 121% | 115% | 116% | 119% | 107% | 109% | 91.2% | 105% | 109% | 105% | 110% | 108% | 104% | 104% | 104% | 103% | 103% | 87.2% | 107% | 104% | 106% | 108% | 108% | 107% | 97.1% | 102% | 98.4% | 103% | 91.7%
O=P1(N(CCCl)CCCl)NCCCO1 (stereo not drawn) [Cyclophosphamide] | 98.4% | 103% | 115% | 104% | 108% | 115% | 116% | 106% | 105% | 106% | 114% | 108% | 102% | 110% | 106% | 98.3% | 106% | 102% | 99.5% | 101% | 100% | 102% | 101% | 105% | 105% | 106% | 106% | 106% | 105% | 100% | 106% | 101% | 102%
CCOc1ccc(Cc2cc([C@@H]3O[C@H](CO)[C@@H](O)[C@H](O)[C@H]3O)ccc2Cl)cc1 [Dapagliflozin] | 130% | 129% | 130% | 134% | 140% | 124% | 136% | 127% | 128% | 117% | 105% | 111% | 109% | 108% | 115% | 107% | 98.4% | 28.2% | 106% | 26.9% | -0.194% | 16% | 103% | 106% | 112% | 106% | 111% | 104% | 112% | 106% | 110% | 104% | 95.2%
O=C(/C=C/c1cccnc1)NCCCCC1CCN(C(=O)c2ccccc2)CC1 [Daporinad] | 121% | 110% | 112% | 124% | 114% | 124% | 123% | 102% | 96.2% | 108% | 84.2% | 6.69% | 6.69% | 6.8% | 6.79% | 6.73% | 6.6% | 6.76% | 6.48% | 5.94% | 5.1% | 3.48% | 96.2% | 98.6% | 103% | 99.8% | 103% | 98.7% | 97.7% | 97.8% | 95.1% | 93.3% | 80.5%
CC(=O)O[C@@]12CO[C@@H]1C[C@H](O)[C@]3(C)[C@@H]2[C@H](OC(=O)C4=CC=CC=C4)[C@]5(O)C[C@H](OC(=O)[C@H](O)[C@@H](NC(=O)OC(C)(C)C)C6=CC=CC=C6)C(=C([C@@H](O)C3=O)/C5(C)C)\C [Docetaxel] | 35.5% | 19.8% | 14.5% | 13.9% | 12.4% | 14.4% | 18.5% | 22.8% | 25.5% | 26.7% | 20.4% | 30.3% | 19.8% | 12% | 11.2% | 9.95% | 11.2% | 12% | 14% | 16.1% | 17.6% | 7.56% | 27.5% | 26% | 22.9% | 25.9% | 21.5% | 23.2% | 20.6% | 20% | 21.5% | 22.6% | 15.1%
CCOC(=O)C/1=C(O)/C(=O)N(CC2=CC=CC=C2)C1 [EBPC] | 130% | 136% | 119% | 128% | 128% | 132% | 132% | 127% | 132% | 130% | 111% | 103% | 110% | 110% | 110% | 112% | 106% | 108% | 53.8% | 100% | 30.4% | 63% | 103% | 109% | 110% | 103% | 109% | 111% | 109% | 111% | 105% | 102% | 16.6%
NC(=O)C1CCCc2c1[nH]c1ccc(Cl)cc21 (stereo not drawn) [EX-527] | 114% | 113% | 109% | 117% | 113% | 122% | 117% | 114% | 115% | 108% | 90.6% | 101% | 103% | 100% | 99% | 107% | 107% | 104% | 93.9% | 94.9% | 104% | 95.3% | 108% | 106% | 104% | 103% | 109% | 106% | 104% | 104% | 105% | 104% | 64.6%
CN(NC(=O)CC(=O)NN(C)C(=S)c1ccccc1)C(=S)c1ccccc1 [Elesclomol] | 102% | 84.1% | 73.1% | 84.4% | 86.5% | 91.6% | 90% | 89.4% | 96.6% | 97.7% | 75.6% | 112% | 80.4% | 61% | 74.5% | 86.1% | 99.7% | 111% | 105% | 106% | 101% | 65% | 105% | 109% | 101% | 100% | 98% | 108% | 103% | 101% | 102% | 98.6% | 101%
O=C1C(CCC(O)c2ccc(F)cc2)C(c2ccc(O)cc2)N1c1ccc(F)cc1 (stereo not drawn) [Ezetimibe] | 114% | 130% | 124% | 125% | 120% | 117% | 113% | 115% | 112% | 116% | 73.3% | 110% | 104% | 104% | 110% | 109% | 101% | 107% | 98.6% | 108% | 108% | 96.7% | 109% | 104% | 108% | 112% | 109% | 107% | 110% | 110% | 103% | 109% | 98.8%
COCCNCCCn1c(C(=O)CF)c(-c2ccc(C)cc2)c2c(N)ncnc21 [FMK-MEA] | 108% | 115% | 117% | 116% | 118% | 114% | 102% | 109% | 103% | 94.9% | 93.2% | 104% | 105% | 104% | 97.8% | 106% | 101% | 106% | 103% | 103% | 102% | 92% | 94.6% | 100% | 103% | 103% | 106% | 103% | 103% | 106% | 98.7% | 104% | 90.1%
